Results published in the supplement of paper PMC4967469.
IC50 is the fitted dose that halves viability relative to control wells, and lower means more sensitive; a limit (>, <) means that the fit lies beyond the doses tested. AUC is the area under the same curve over the 256-fold range up to the top dose, as a fraction; it is 1 without any effect and falls as sensitivity rises. The top dose, if marked as inferred, was derived from the fitted curves, not read from the paper. For some of these results: Where an entry number is given, a second screen of the drug exists; the two often differ.

What was measured:
Test in all cases: Viability of human cancer cell lines after 72 h of drug (GDSC screen)
BMN-673 = compound: Cn1ncnc1[C@H]1c2n[nH]c(=O)c3cc(F)cc(c23)N[C@@H]1c1ccc(F)cc1 [BMN-673]; conditions: top dose 10 µM; top dose inferred
Experimental: (§1)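 Human cancer cell lines in 384-well plates, medium with 10% serum, drug for 72 h over a 256-fold dose range (nine 2-fold or five 4-fold steps up to the top dose). Adherent lines were fixed and stained with the nucleic acid dye Syto60, suspension lines read with resazurin; signal relative to control wells, capped at 0 and 100%. One two-parameter sigmoid per drug and line, fitted in a mixed model over all curves with the slope shared within a line.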

AZD6482 = compound: Cc1cc([C@@H](C)Nc2ccccc2C(=O)O)c2nc(N3CCOCC3)cc(=O)n2c1 [AZD6482]
Experimental: as §1

MLN4924 = compound: NS(=O)(=O)OC[C@@H]1C[C@@H](n2ccc3c(N[C@H]4CCc5ccccc54)ncnc32)C[C@@H]1O [MLN4924]; conditions: top dose 1 µM; top dose inferred
Experimental: as §1

XMD11-85h = compound: COc1cc(C(=O)NC2CCN(C)CC2)ccc1Nc1ncc2c(n1)N(C1CCCC1)CCC(=O)N2C(C)C [XMD11-85h]; conditions: top dose 10 µM; top dose inferred
Experimental: as §1

[1] = top dose 5 µM, screen: GDSC drug entry 1066, top dose inferred
[2] = top dose 5.12 µM, screen: GDSC drug entry 156

| Cell Line | AUC (BMN-673) | IC50 (BMN-673) [µM] | AUC (AZD6482; [1]) | IC50 (AZD6482; [1]) [µM] | AUC (AZD6482; [2]) | IC50 (AZD6482; [2]) [µM] | AUC (MLN4924) | IC50 (MLN4924) [µM] | AUC (XMD11-85h) | IC50 (XMD11-85h) [µM] |
| --- | --- | --- | --- | --- | --- | --- | --- | --- | --- | --- |
| MDA-MB-175-VII (breast, adherent) | 0.948 | > 10 | 0.854 | 4.59 | 0.901 | > 5.12 | 0.958 | > 1 | 0.986 | > 10 |
| WM278 (melanoma, adherent) | 0.733 | 3.17 | 0.879 | > 5 | – | – | 0.898 | > 1 | 0.937 | > 10 |
| SIMA (neuroblastoma, adherent) | 0.527 | 0.748 | 0.985 | > 5 | 0.943 | > 5.12 | 0.884 | > 1 | 0.978 | > 10 |
| WSU-DLCL2 (B-cell lymphoma, suspension) | 0.99 | > 10 | 0.867 | 3.29 | 0.993 | > 5.12 | 0.965 | > 1 | 0.987 | > 10 |
| NB-4 (acute myeloid leukaemia, suspension) | 0.614 | 1.21 | 0.884 | 3.73 | 0.827 | 2.39 | 0.569 | 0.093 | 0.888 | 7.69 |
| TE-1 (oesophagus, adherent) | 0.928 | > 10 | 0.863 | > 5 | 0.888 | > 5.12 | 0.858 | > 1 | 0.949 | > 10 |
| NCI-H1395 (lung adenocarcinoma, adherent) | 0.61 | 1.39 | 0.746 | 2.05 | 0.938 | > 5.12 | 0.911 | > 1 | 0.969 | > 10 |
| SKM-1 (haematopoietic neoplasm, suspension) | 0.89 | > 10 | 0.629 | 0.738 | – | – | 0.771 | 0.424 | 0.9 | > 10 |
| Calu-3 (lung adenocarcinoma, adherent) | 0.75 | 4.01 | 0.941 | > 5 | 0.795 | 3.08 | 0.858 | > 1 | 0.979 | > 10 |
| NCC021 (kidney, adherent) | 0.857 | > 10 | 0.722 | 1.5 | – | – | 0.969 | > 1 | 0.973 | > 10 |
| NMC-G1 (glioma, adherent) | 0.631 | 1.57 | 0.899 | > 5 | 0.878 | > 5.12 | 0.867 | > 1 | 0.96 | > 10 |
| H2869 (mesothelioma, adherent) | 0.824 | 7.92 | 0.977 | > 5 | 0.964 | > 5.12 | 0.819 | 0.756 | 0.982 | > 10 |
| TUR (B-cell lymphoma, suspension) | 0.842 | 6.22 | 0.903 | > 5 | 0.96 | > 5.12 | 0.673 | 0.182 | 0.962 | > 10 |
| NCI-H2291 (lung adenocarcinoma, adherent) | 0.821 | 8.95 | 0.683 | 1.24 | 0.984 | > 5.12 | 0.858 | > 1 | 0.982 | > 10 |
| SCC-4 (head and neck, adherent) | 0.91 | > 10 | 0.851 | 4.97 | 0.939 | > 5.12 | 0.942 | > 1 | 0.982 | > 10 |
| ES3 (Ewing sarcoma, adherent) | 0.246 | 0.111 | 0.937 | > 5 | 0.953 | > 5.12 | 0.815 | 0.584 | 0.883 | > 10 |
| TE-9 (oesophagus, adherent) | 0.799 | 5.01 | 0.901 | > 5 | 0.903 | > 5.12 | 0.892 | > 1 | 0.979 | > 10 |
| SU-DHL-8 (B-cell lymphoma, suspension) | 0.847 | 6.65 | – | – | 0.913 | > 5.12 | 0.852 | 0.694 | 0.967 | > 10 |
| TE-5 (oesophagus, adherent) | 0.722 | 2.96 | 0.925 | > 5 | 0.936 | > 5.12 | 0.781 | 0.481 | 0.965 | > 10 |
| NCI-H1648 (lung adenocarcinoma, adherent) | 0.936 | > 10 | 0.805 | 2.71 | 0.883 | > 5.12 | 0.748 | 0.341 | 0.983 | > 10 |
| RC-K8 (B-cell lymphoma, suspension) | 0.993 | > 10 | 0.991 | > 5 | 0.993 | > 5.12 | 0.977 | > 1 | 0.992 | > 10 |
| ES-2 (ovary, adherent) | 0.674 | 1.78 | 0.985 | > 5 | 0.991 | > 5.12 | 0.888 | 0.885 | 0.955 | > 10 |
| Becker (glioma, adherent) | 0.365 | 0.251 | 0.623 | 0.711 | 0.524 | 0.375 | 0.753 | 0.371 | 0.927 | > 10 |
| OCUB-M (breast, adherent) | 0.884 | 8.29 | 0.641 | 0.721 | 0.735 | 1.34 | 0.729 | 0.251 | 0.985 | > 10 |
| SK-CO-1 (large intestine, adherent) | 0.195 | 0.083 | 0.986 | > 5 | 0.972 | > 5.12 | 0.877 | 0.904 | 0.983 | > 10 |
| NAMALWA (Burkitt lymphoma, suspension) | 0.613 | 1.21 | 0.976 | > 5 | 0.973 | > 5.12 | 0.896 | 0.883 | 0.916 | > 10 |
| CAS-1 (glioma, adherent) | 0.915 | > 10 | – | – | 0.788 | 3.2 | 0.979 | > 1 | 0.955 | > 10 |

| Cell Line | AUC (BMN-673) | IC50 (BMN-673) [µM] | AUC (AZD6482; [1]) | IC50 (AZD6482; [1]) [µM] | AUC (AZD6482; [2]) | IC50 (AZD6482; [2]) [µM] | AUC (MLN4924) | IC50 (MLN4924) [µM] | AUC (XMD11-85h) | IC50 (XMD11-85h) [µM] |
| --- | --- | --- | --- | --- | --- | --- | --- | --- | --- | --- |
| SHP-77 (small cell lung carcinoma, semi-adherent) | 0.952 | > 10 | 0.981 | > 5 | 0.991 | > 5.12 | 0.954 | > 1 | 0.987 | > 10 |
| MHH-ES-1 (Ewing sarcoma, adherent) | 0.074 | < 0.0391 | 0.923 | > 5 | 0.959 | > 5.12 | 0.607 | 0.123 | 0.914 | > 10 |
| ESO51 (oesophagus, semi-adherent) | 0.978 | > 10 | 0.953 | > 5 | – | – | 0.956 | > 1 | 0.969 | > 10 |
| A498 (kidney, adherent) | 0.914 | > 10 | 0.545 | 0.441 | 0.407 | 0.156 | 0.761 | 0.535 | 0.933 | > 10 |
| ASH-3 (thyroid, adherent) | 0.784 | 4.24 | 0.903 | > 5 | 0.906 | > 5.12 | 0.866 | 0.892 | 0.973 | > 10 |
| HCC-366 (non-small cell lung carcinoma, adherent) | 0.916 | > 10 | 0.972 | > 5 | – | – | 0.955 | > 1 | 0.987 | > 10 |
| NB5 (neuroblastoma, adherent) | 0.466 | 0.504 | 0.878 | > 5 | 0.969 | > 5.12 | 0.694 | 0.22 | 0.975 | > 10 |
| TE-12 (oesophagus, suspension) | 0.97 | > 10 | 0.945 | > 5 | 0.863 | > 5.12 | 0.839 | 0.902 | 0.978 | > 10 |
| GI-1 (glioma, adherent) | 0.298 | 0.174 | 0.875 | 4.55 | 0.707 | 1.2 | 0.699 | 0.221 | 0.945 | > 10 |
| MDA-MB-330 (breast, adherent) | 0.883 | > 10 | – | – | 0.852 | 4.83 | 0.892 | > 1 | 0.982 | > 10 |
| NB13 (neuroblastoma, adherent) | 0.683 | 1.9 | – | – | 0.971 | > 5.12 | 0.851 | 0.632 | 0.982 | > 10 |
| ES5 (Ewing sarcoma, adherent) | 0.604 | 1.26 | 0.919 | > 5 | 0.912 | > 5.12 | 0.8 | 0.569 | 0.954 | > 10 |
| JHOS-3 (ovary, adherent) | 0.897 | > 10 | 0.93 | > 5 | – | – | 0.969 | > 1 | 0.93 | > 10 |
| RKO (large intestine, adherent) | 0.816 | 5.03 | 0.842 | 3.15 | 0.812 | 2.5 | 0.475 | 0.0538 | 0.962 | > 10 |
| SK-MES-1 (lung squamous cell carcinoma, adherent) | 0.832 | 7.21 | 0.841 | 3.92 | 0.578 | 0.533 | 0.933 | > 1 | 0.968 | > 10 |
| MZ1-PC (pancreas, adherent) | 0.814 | 7.2 | 0.957 | > 5 | 0.836 | 4.62 | 0.664 | 0.2 | 0.963 | > 10 |
| KNS-42 (glioma, adherent) | 0.923 | > 10 | 0.936 | > 5 | 0.799 | 3.03 | 0.959 | > 1 | 0.935 | > 10 |
| EW-16 (Ewing sarcoma, adherent) | 0.488 | 0.579 | 0.979 | > 5 | 0.882 | > 5.12 | 0.658 | 0.175 | 0.934 | > 10 |
| NB(TU)1-10 (neuroblastoma, adherent) | 0.993 | > 10 | 0.992 | > 5 | 0.929 | > 5.12 | 0.992 | > 1 | 0.992 | > 10 |
| COLO-783 (melanoma, adherent) | 0.936 | > 10 | 0.955 | > 5 | 0.986 | > 5.12 | 0.889 | > 1 | 0.99 | > 10 |
| SR (lymphoid neoplasm, suspension) | 0.819 | 4.95 | 0.863 | 3.63 | 0.926 | > 5.12 | 0.789 | 0.394 | 0.84 | 5.91 |
| NCI-H508 (large intestine, semi-adherent) | 0.947 | > 10 | 0.832 | > 5 | – | – | 0.928 | > 1 | 0.89 | > 10 |
| VA-ES-BJ (soft tissue, adherent) | 0.664 | 1.84 | 0.891 | > 5 | 0.853 | 4.33 | 0.399 | 0.0324 | 0.984 | > 10 |
| HCC2218 (breast, suspension) | 0.967 | > 10 | 0.967 | > 5 | 0.963 | > 5.12 | 0.978 | > 1 | 0.98 | > 10 |
| 639-V (bladder, adherent) | 0.64 | 1.43 | 0.877 | 3.74 | 0.76 | 1.56 | 0.781 | 0.35 | 0.958 | > 10 |
| NCI-H2110 (non-small cell lung carcinoma, adherent) | 0.747 | 3.26 | 0.947 | > 5 | 0.886 | > 5.12 | 0.734 | 0.296 | 0.961 | > 10 |
